From PubChem BioAssay AID488969 (Vanderbilt High Throughput Screening Facility, 2010)
Whole data set: some 110,000 compounds, median “z-score” near -0.1, cut for the highest 2% near 2. The list shows a part of the results.

biological target: Metabotropic glutamate receptor 8 (Rattus norvegicus) (UniProt P70579); experiment: mGluR8 Gi/Go-coupled signaling modulation – cell-based, rat, thallium flux, HTS, primary screen (AID 488969); settings: HEK293 rat mGluR8, GIRK (G protein-gated inwardly rectifying potassium channel) thallium flux, FluoZin2; at 10 µM; stronger effect = higher value
Chain of UniProt P70579 (P70579 whole entry, looked up): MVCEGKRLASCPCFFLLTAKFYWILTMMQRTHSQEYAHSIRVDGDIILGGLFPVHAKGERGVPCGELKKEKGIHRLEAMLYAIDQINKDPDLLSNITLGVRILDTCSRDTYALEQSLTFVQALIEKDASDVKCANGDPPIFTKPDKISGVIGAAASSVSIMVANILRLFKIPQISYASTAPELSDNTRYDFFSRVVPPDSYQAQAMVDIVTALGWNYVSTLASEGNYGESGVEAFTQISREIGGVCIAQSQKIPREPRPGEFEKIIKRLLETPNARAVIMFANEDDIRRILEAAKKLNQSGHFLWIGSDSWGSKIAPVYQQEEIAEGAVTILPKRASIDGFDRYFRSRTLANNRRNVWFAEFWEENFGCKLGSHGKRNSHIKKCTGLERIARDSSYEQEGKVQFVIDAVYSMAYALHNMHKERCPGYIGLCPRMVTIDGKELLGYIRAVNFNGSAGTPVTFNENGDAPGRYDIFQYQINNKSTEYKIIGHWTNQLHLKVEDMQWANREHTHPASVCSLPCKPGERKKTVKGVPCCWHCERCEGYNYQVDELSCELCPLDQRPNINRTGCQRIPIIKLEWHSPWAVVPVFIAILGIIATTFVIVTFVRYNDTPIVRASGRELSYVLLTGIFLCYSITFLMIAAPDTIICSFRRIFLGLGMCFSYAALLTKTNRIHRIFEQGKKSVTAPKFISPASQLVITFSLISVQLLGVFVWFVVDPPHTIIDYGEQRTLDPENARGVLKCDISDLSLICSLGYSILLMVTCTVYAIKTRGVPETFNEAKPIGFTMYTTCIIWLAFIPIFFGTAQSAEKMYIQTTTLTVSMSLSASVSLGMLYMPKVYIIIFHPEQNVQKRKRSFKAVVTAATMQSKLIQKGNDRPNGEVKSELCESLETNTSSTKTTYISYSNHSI

Compared with `CN1C(=O)C(Cc2cccs2)C(=O)N(C)C1=O`, `CN1C(=O)N(C)C(=O)C2(Sc3ccccc3C2=O)C1=O` is higher in z-score: -0.201 for the first, -0.108 for the second.

Going from `O=P(Nc1cccnc1)(Oc1ccccc1)Oc1ccccc1` to `O=P(Nc1ccccc1)(Nc1ccccc1)Oc1ccc(Cl)cc1`, the z-score rises from -0.195 to -0.0907.

Compared with `CC(=O)Nc1cc(C(=O)N2CCC3(CC2)OCCO3)ccc1S(=O)(=O)c1ccc(Cl)cc1`, `O=C(c1sc2ccccc2c1Cl)N1CCC2(CC1)OCCO2` is lower in z-score: -0.147 for the first, -0.308 for the second.

Going from `O=C(C1CCC(=O)N1Cc1ccc(F)cc1)N1CCC2(CC1)OCCO2` (configuration not stated) to `Cc1c(C(=O)N2CCC3(CC2)OCCO3)oc2ccccc12`, the z-score rises from 0.159 to 0.833.

First: O=C(c1cc2c(s1)CCCCCC2)N1CCC2(CC1)OCCO2
Second: CC(C)CC(NC(=O)C1CCCCC1)C(=O)N1CCC2(CC1)OCCO2 (configuration not stated)
The z-score of the first is lower: -0.14 for the first, 0.0831 for the second.

Compared with `CN(C)c1ccc(/C=C2/C(=O)NC(=O)N(CCc3ccc(F)cc3)C2=O)cc1`, `Cc1c(N=Cc2c(O)n(CCc3ccc(F)cc3)c(=O)[nH]c2=O)c(=O)n(-c2ccccc2)n1C` is lower in z-score: -0.183 for the first, -0.511 for the second.

Going from `CCc1cccc(C)c1NC(=S)N1CC2CC(C1)c1cccc(=O)n1C2` (configuration not stated) to `CCN1CCN(C(=O)Cc2coc3ccc4ccccc4c23)CC1`, the z-score falls from -0.12 to -0.146.

Going from `O=C1OCCC1NC1=NCCC1` (configuration not stated) to `CC(=O)C1C(=O)NC23CCCCC2C1c1ccccc1O3` (configuration not stated), the z-score falls from 0.969 to 0.359.

First: COc1ccccc1N1CCN(Cc2cc(C)c(C)cc2O)CC1
Second: FC(F)(F)c1ccccc1CN1CCN(Cc2ccccc2)CC1
The z-score of the first is higher: -0.141 for the first, -0.36 for the second.

Going from `CNCCc1nc(N)n[nH]1` to `Cc1[nH]c2ccccc2c1CCN`, the z-score falls from -0.346 to -0.894.

Going from `CC(=NCc1ccco1)c1c(O)n(C)c(=O)n(C)c1=O` to `CCN(CC)CCCC(C)N=C(c1ccccc1)c1c(O)n(C)c(=O)n(C)c1=O` (configuration not stated), the z-score falls from 1 to -0.293.

First: O=c1[nH]c(=O)n(Cc2ccco2)c(O)c1C=NCCCn1ccnc1
Second: CCOc1ccc(-n2c(O)c(C=NCCCn3ccnc3)c(=O)[nH]c2=O)cc1
The z-score of the first is higher: 0.07 for the first, 0.0171 for the second.

Compared with `FC(F)(F)/C(=N\P(=S)(N1CCOCC1)N1CCOCC1)N1CCOCC1`, `O=C(COc1ccc(Cl)cc1)N1CCN(C/C=C/c2ccccc2)CC1` is higher in z-score: -0.145 for the first, -0.0408 for the second.

Going from `CN1CCc2nc3ccc(F)cc3c(C(N)=O)c2C1` to `CC(C(N)=O)N1CC(c2ccc(Cl)cc2)CC1=O` (configuration not stated), the z-score falls from -0.062 to -0.161.

Going from `Cn1cccc1CNCCc1ccc(F)cc1` to `Cc1cccc(CN2CCN(Cc3ccc(Cl)cc3)CC2)c1`, the z-score falls from -0.24 to -0.773.

First: Oc1ccc(/C=N/NP(=S)(c2ccccc2)c2ccccc2)c(O)c1O
Second: O=P(O)(O)Cc1ccccc1OP(=O)(c1ccccc1)c1ccccc1
The z-score of the first is higher: 0.274 for the first, -0.537 for the second.

Compared with `CN1C(=O)NC(=O)C2(Cc3ccccc3N3CCOCC32)C1=O` (configuration not stated), `Cc1ccc(N2C(=O)NC(=O)C3(Cc4ccccc4N4CCCC43)C2=O)cc1` (configuration not stated) is lower in z-score: -0.307 for the first, -0.319 for the second.

First: CCOc1ccc(N=C2SCCCN2C)cc1
Second: Cn1c(O)c(C=NCCOc2ccc(Cl)cc2)c(=O)n(C)c1=O
The z-score of the first is higher: 0.638 for the first, 0.0723 for the second.

Going from `Cc1ccccc1-n1c(C)cc(/C=C2/C(=O)NC(=O)N(Cc3ccco3)C2=O)c1C` to `Cc1cc(/C=C2\C(=O)NC(=O)N(c3cccc(Br)c3)C2=O)c(C)n1C`, the z-score falls from 1.01 to -1.26.

First: c1ccc(C(OCCN2CCNCC2)c2ccccc2)cc1
Second: O=C(/C=C/c1ccccc1)c1c(O)n(CCc2ccccc2)c(=O)[nH]c1=O
The z-score of the first is higher: 0.0452 for the first, -0.203 for the second.

Compared with `O=c1c2ccccc2nc(-c2ccc([N+](=O)[O-])cc2)n1-c1ccccc1`, `Cc1ccc(-c2nc3ccccc3c(=O)n2-c2cccnc2)cc1` is lower in z-score: -0.0961 for the first, -0.94 for the second.

Going from `CCOc1ccc(C2C(C#N)=C(N)Oc3c2c(=O)oc2ccccc32)cc1` (configuration not stated) to `CCOc1ccc(NC(=O)c2c(C)nn(Cc3ccccc3)c2Cl)cc1`, the z-score rises from 0.101 to 0.114.

Compared with `Clc1ccc2c(c1)C(c1ccccc1Cl)=NCc1nncn1-2`, `COc1ccc(OCC(=O)Nc2ccc(Cl)cc2C(=O)c2ccccc2)cc1` is lower in z-score: 1.46 for the first, -0.0614 for the second.

First: CCCC(C)n1[nH]c(=O)c2c1NC(=O)CSC2c1ccc(OC)cc1 (configuration not stated)
Second: COc1cccc(N2C(=O)CC(=O)NC2=O)c1
The z-score of the first is higher: 0.623 for the first, 0.152 for the second.

Going from `Cc1cc2c(s1)NC(=O)CN=C2c1cccs1` to `Cc1cccc(C2=NCC(=O)N(CC(=O)NCc3ccco3)c3sc4c(c32)CCCC4)c1`, the z-score rises from -0.674 to -0.553.

First: C=CCn1c(O)c(N=Nc2c(C)n(C)n(-c3ccccc3)c2=O)c(=O)[nH]c1=S
Second: Cc1cccc(-n2c(O)c(/C=C/C=Nc3ccccc3)c(=O)[nH]c2=O)c1
The z-score of the first is higher: 0.244 for the first, -0.724 for the second.

First: Cc1ccc(N2C(=O)NC(=O)/C(=C\c3ccsc3)C2=O)cc1C
Second: Cc1ccc(N2C(=O)/C(=C/c3ccc(CN(CCC#N)S(C)(=O)=O)o3)C(=O)NC2=S)cc1C
The z-score of the first is higher: -0.165 for the first, -0.237 for the second.

First: CC(=NCCCN1CCCCC1)c1c(O)n(Cc2ccccc2)c(=O)[nH]c1=O
Second: CC(=NCc1cccnc1)c1c(O)n(Cc2ccccc2)c(=O)[nH]c1=O
The z-score of the first is higher: -0.0233 for the first, -0.11 for the second.

First: COc1ccc(NC(c2ccccc2)P(=O)(Oc2ccccc2)Oc2ccccc2)cc1 (configuration not stated)
Second: O=c1c2ccccc2nc(-c2ccco2)n1-c1ccccn1
The z-score of the first is lower: -0.0896 for the first, -0.0713 for the second.

First: COC(=O)c1ccccc1OP1(=O)COc2ccccc2OC1
Second: CC1=C(C(=O)Nc2ccccc2)SCCO1
The z-score of the first is lower: -0.147 for the first, 1.02 for the second.

Compared with `CC(=O)NC(Cc1ccc(N(CCCl)CCCl)cc1)C(=O)O` (configuration not stated), `C=CCN(c1ccc(C(=O)N(CC)CC)cc1)S(C)(=O)=O` is lower in z-score: 0.38 for the first, 0.139 for the second.

First: CCC12C=CCN3CCC4(c5cc(Br)c(OC)cc5N(C)C4C(O)(C(=O)OC)C1OC(C)=O)C32 (configuration not stated)
Second: CCOC(=O)C(O)(c1ccc(NC(=O)c2ccco2)c(OC)c1)C(F)(F)F (configuration not stated)
The z-score of the first is lower: -0.463 for the first, -0.0452 for the second.

Going from `CC1CN(c2ccc([N+](=O)[O-])c3cccnc23)CC(C)N1` (configuration not stated) to `CN1CCN(c2ccc([N+](=O)[O-])c(NCc3ccco3)c2)CC1`, the z-score rises from 0.0267 to 0.0767.

Compared with `CCn1c(O)c(C=Nc2ccc(S(N)(=O)=O)cc2)c(=O)[nH]c1=S`, `Cc1nn(Cc2ccccc2)c(C)c1C=C1C(=O)NC(=O)NC1=O` is higher in z-score: -0.0715 for the first, 2.1 for the second.

Compared with `Nc1ccccc1C(=O)OC1CSC1`, `NP(=O)(OCC(F)(F)F)Oc1ccccc1` (configuration not stated) is lower in z-score: 0.121 for the first, -0.13 for the second.

Going from `CCOC(=O)c1c(-n2c(C)cc(C=C3C(=O)NC(=S)NC3=O)c2C)sc2c1CCCC2` to `COC(=O)OCC12CCC(O1)C1(C)C(=O)OCC21` (configuration not stated), the z-score rises from -0.312 to -0.227.
